Assay results taken from the supplement of paper PMC3334620.
Over roughly 33,000 sequences, “E-score (-0.5 to 0.5)” has its median near -0.021; the highest 2% begin near 0.32. The list shows a part of the results.

target: T1, Zap1 (UniProt P47043); experiment: PBM E-score (8-mer binding enrichment) (E-score (-0.5 to 0.5)); higher = stronger / more preferred TF binding; most listed sequences are background and not binding sites; conditions: protein concentration: 200 nM; construct: GST-full length
T1 sequence: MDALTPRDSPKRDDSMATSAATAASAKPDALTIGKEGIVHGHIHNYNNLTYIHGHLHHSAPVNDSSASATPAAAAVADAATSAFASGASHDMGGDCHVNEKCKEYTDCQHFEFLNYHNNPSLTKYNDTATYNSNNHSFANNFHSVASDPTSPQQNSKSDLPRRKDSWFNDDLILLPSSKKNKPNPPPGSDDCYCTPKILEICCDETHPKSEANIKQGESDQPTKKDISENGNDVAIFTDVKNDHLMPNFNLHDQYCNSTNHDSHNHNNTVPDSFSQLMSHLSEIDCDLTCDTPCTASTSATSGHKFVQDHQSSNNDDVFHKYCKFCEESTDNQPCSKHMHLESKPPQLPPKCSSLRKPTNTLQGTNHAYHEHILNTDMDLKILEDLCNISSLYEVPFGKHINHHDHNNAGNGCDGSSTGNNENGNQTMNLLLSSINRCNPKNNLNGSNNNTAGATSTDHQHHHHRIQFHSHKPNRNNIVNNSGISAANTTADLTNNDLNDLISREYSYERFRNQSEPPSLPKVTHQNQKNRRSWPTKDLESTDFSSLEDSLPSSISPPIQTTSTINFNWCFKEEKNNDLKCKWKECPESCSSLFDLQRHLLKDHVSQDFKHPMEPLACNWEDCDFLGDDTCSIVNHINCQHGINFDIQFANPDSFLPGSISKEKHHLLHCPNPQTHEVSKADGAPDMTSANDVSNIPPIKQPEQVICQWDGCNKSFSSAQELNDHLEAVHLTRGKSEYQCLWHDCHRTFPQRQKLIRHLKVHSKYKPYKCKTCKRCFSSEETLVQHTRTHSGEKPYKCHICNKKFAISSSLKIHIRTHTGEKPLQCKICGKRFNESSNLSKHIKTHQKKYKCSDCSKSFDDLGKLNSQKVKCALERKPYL
Outline: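 Detection of bound protein used fluorescent anti-GST, with scans normalised by masliner. The proteins were GST-tagged yeast transcription factors applied at about 100-200 nM to universal all-10-mer Agilent arrays made double-stranded by primer extension. Each ungapped eight-base word, pooled with its reverse complement, was scored with an E-score from the Universal PBM Analysis Suite.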

| Sequence | PBM E-score |
| --- | --- |
| CTTTTTTA | 0.208 |
| CAACATAG | -0.103 |
| ACCTACTA | 0.113 |
| TTACCGAA | 0.231 |
| ATTATGCG | 0.154 |
| ATAGGATC | -0.0267 |
| TGATATCA | -0.0863 |
| GCTTACCA | 0.0792 |
| CTATCACA | -0.024 |
| ACTGTGAG | 0.119 |
| AATGTGGG | -0.049 |
| ACTGGCCC | -0.0297 |
| CCAGGGGG | -0.095 |
| CCGGGGTA | 0.212 |
| GCGAACAA | 0.275 |
| GCGTCTCA | -0.0752 |
| AACAGGGC | -0.0745 |
| ACCGCCCA | 0.0109 |
| AAGAGACA | -0.00205 |
| CTCAAATC | -0.15 |
| CCACGGCC | -0.0782 |
| AACCAAAG | 0.26 |
| GATCCAGC | -0.216 |
| AAAGAAAC | 0.152 |
| ATTCTGGC | -0.0503 |

| Sequence | PBM E-score |
| --- | --- |
| AAAAATCC | -0.0127 |
| ACGTGAAG | -0.0826 |
| ATGAGCAC | -0.101 |
| CCACGTAC | -0.0507 |
| CAGCGAGA | -0.173 |
| AGCTATAA | 0.162 |
| CGGGGAAG | -0.15 |
| CCAAGACC | 0.00186 |
| CTTTTTCA | 0.178 |
| ATCGTTCA | 0.092 |
| AGATATAA | 0.169 |
| CTAAAGAC | -0.0654 |
| AGGGAACG | -0.179 |
| AACCTATT | 0.281 |
| ACTGATTG | -0.0958 |
| CCCTAAGA | 0.263 |
| ATCCACCC | -0.023 |
| ACCTGGCG | -0.0533 |
| TCAGTGAA | 0.0126 |
| CCATGATC | 0.106 |
| GGCCTAAC | 0.0974 |
| CAACTGCC | -0.151 |
| GCTAGGGA | 0.0294 |
| AGATGCAC | -0.281 |
| CAAAGTCA | 0.0434 |

| Sequence | PBM E-score |
| --- | --- |
| CTTGCCGC | -0.132 |
| CTATTCGA | -0.0524 |
| GAAGCTTC | -0.265 |
| GAATTCAA | 0.0163 |
| GGCATCCA | -0.107 |
| CCGAGGTA | 0.242 |
| GGTTAGCA | 0.287 |
| AAAAATGC | -0.0632 |
| AAGCATTG | -0.266 |
| GAACGGAC | -0.203 |
| AGCCTTAA | -0.0565 |
| AGGAGATC | 0.00265 |
| AACAAGTG | -0.0556 |
| AAGGGTAC | 0.426 |
| GTGGAGCA | -0.141 |
| AATCTTCA | 0.16 |
| CGACCCAC | 0.23 |
| AGGAAGCC | -0.212 |
| AGTATTCC | -0.0642 |
| GCTCCGAA | 0.0279 |
| CAGCACTA | -0.136 |
| TGTCCACA | 0.203 |
| TATTTGCA | 0.0343 |
| AAGTATTG | 0.0209 |
| CCCAGTTC | 0.138 |

| Sequence | PBM E-score |
| --- | --- |
| GGAGCCGA | -0.0801 |
| GTGTTTGA | 0.216 |
| ACACTGAT | -0.0013 |
| ATGGCGCA | -0.0985 |
| CGATCGAA | 0.00527 |
| AATCCGCG | -0.146 |
| ACTATTTA | 0.0954 |
| CCTACCCG | 0.167 |
| CCAGTACC | 0.183 |
| GAGTAGTA | 0.0341 |
| CACATAGC | -0.136 |
| AGCCGGGG | -0.27 |
| AGCTATGC | -0.179 |
| CAATGGCA | 0.0406 |
| CATCTGAC | -0.21 |
| CTACTTAC | -0.0894 |
| GCCGAACC | -0.067 |
| GGTGGGAC | -0.246 |
| AACAATTA | 0.156 |
| AATTCTGT | -0.0667 |
| AACTATCC | -0.0465 |
| ATTACACC | 0.117 |
| CTACGCAC | -0.157 |
| CGTTACAC | 0.0157 |
| GCGTTTCA | -0.179 |

| Sequence | PBM E-score |
| --- | --- |
| GGTGTCCA | 0.211 |
| ACTGAAAG | 0.13 |
| CCCTTGGA | 0.217 |
| CCAGCGTA | -0.109 |
| AGTCGCCG | -0.116 |
| AAGTTGTC | 0.13 |
| CAGCTCGA | -0.112 |
| GAAATCAC | 0.105 |
| AAAATTCT | -0.0767 |
| CTGTTCCC | -0.135 |
| CGGGGATC | -0.225 |
| AGTACACG | -0.107 |
| AGAAACGG | 0.0285 |
| GCTGATTA | 0.114 |
| GACGCGTA | -0.0999 |
| GGTAACAA | 0.38 |
| CATACTAC | 0.187 |
| TACCTGCA | 0.192 |
| CACTCGGA | -0.0236 |
| ACCCCGCT | 0.135 |
| CCAGTTGA | -0.159 |
| GAGAAAGC | -0.0701 |
| GATAGATC | -0.126 |
| AACCACGT | 0.125 |
| ACTCCTGA | -0.0864 |

| Sequence | PBM E-score |
| --- | --- |
| ATGTGGTC | 0.0865 |
| TAAGTGCA | -0.0417 |
| AATCATAA | 0.136 |
| CCGCTACC | 0.252 |
| GATAGGGA | -0.0655 |
| ACCCAAAT | 0.306 |
| AGACACTA | 0.0913 |
| ATGTCCCA | -0.138 |
| GGATGCTA | -0.258 |
| ATTCCAAG | 0.0261 |
| ATGCTCAC | -0.16 |
| CCTTCGCC | -0.217 |
| ATTCGCGG | 0.202 |
| ACATCTCC | -0.123 |
| AAGTCTAA | 0.0161 |
| CAATTTAG | 0.155 |
| TCTCATAA | 0.0169 |
| TAGGTAAA | 0.0149 |
| CGGGTCGC | 0.0356 |
| TGTAGAAA | -0.0482 |
| AACCACTT | 0.235 |
| AGCTTCCC | -0.365 |
| TGCTACAA | 0.155 |
| CATACAAC | 0.0436 |
| AACCTGGA | 0.135 |

| Sequence | PBM E-score |
| --- | --- |
| CCCCTCAG | 0.0013 |
| CTCCTACA | 0.0476 |
| CCGGATTC | -0.0168 |
| CTTAATGC | -0.103 |
| AAACAATT | -0.0127 |
| AAACGGTG | -0.0252 |
| TACGCCCA | -0.0229 |
| CATCCTTC | -0.136 |
| CGGTATAG | -0.122 |
| AACAATAT | 0.292 |
| ACAAACCC | 0.0973 |
| AGGGGAGC | -0.289 |
| CACCGGAG | -0.208 |
| GGACGGCC | -0.0875 |
| CTAATTAA | -0.00111 |
| GAACTTCA | -0.0501 |
| GGTGTCAA | -0.0571 |
| AGTGCCGA | -0.124 |
| GAGATAGC | -0.102 |
| CAGAGTTC | 0.00679 |
| CCCGCTAG | 0.0546 |
| GCTAAAAC | 0.0736 |
